According to article PMC6919601, “Identification of Plasmodium dipeptidyl aminopeptidase allosteric inhibitors by high throughput screening” (PLoS ONE, 2019):
Values joined by “and” are separate entries in the source; they are usually repeats but may differ in a detail not shown here. Equal entries are not always repeated. Hit rate of the full screen: of about 110,000 compounds, about 230 (0.21%) showed an effect of 50% or more. Some of the results follow.

target: DPAP1 (Plasmodium falciparum, UniProt Q8IIJ9); test: primary screen, percent inhibition; read by cleavage of a fluorogenic dipeptide substrate; higher = more effect of the substance; set-up: species or system P. falciparum D10 trophozoite lysates; single well
Sequence (Q8IIJ9 whole entry, looked up): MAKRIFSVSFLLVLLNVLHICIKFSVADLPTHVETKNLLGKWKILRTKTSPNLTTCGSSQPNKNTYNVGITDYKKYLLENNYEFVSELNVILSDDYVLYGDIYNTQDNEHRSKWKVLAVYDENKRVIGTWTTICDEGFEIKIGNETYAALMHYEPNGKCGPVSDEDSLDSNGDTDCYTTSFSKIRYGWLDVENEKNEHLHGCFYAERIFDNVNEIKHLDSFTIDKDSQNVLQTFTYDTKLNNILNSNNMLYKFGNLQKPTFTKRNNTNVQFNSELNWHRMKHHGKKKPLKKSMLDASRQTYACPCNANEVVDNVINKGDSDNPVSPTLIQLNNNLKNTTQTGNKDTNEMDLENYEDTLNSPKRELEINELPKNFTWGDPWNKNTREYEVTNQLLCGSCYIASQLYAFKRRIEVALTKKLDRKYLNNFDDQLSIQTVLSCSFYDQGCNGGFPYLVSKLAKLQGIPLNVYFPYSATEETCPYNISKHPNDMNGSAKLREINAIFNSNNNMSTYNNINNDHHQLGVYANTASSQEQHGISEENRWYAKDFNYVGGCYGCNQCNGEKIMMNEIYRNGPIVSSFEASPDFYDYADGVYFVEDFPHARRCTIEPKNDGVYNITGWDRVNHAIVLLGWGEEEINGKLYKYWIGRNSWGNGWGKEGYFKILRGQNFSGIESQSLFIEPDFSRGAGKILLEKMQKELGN
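Further: 30 min substrate incubation versus DMSO and 10 µM JCP410 controls.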

SMILES	% Inhibition @ 10 uM
O=C(O)c1[nH]c2ccc(Cl)cc2c1CC(=O)N1CCN(Cc2ccccc2)CC1	2.97%
CC1CCCCC1NS(=O)(=O)c1ccc2oc(=O)c3ncn(C)c3c2c1 (centres unmarked)	-3.84%
CCOc1ccc(C2C3=C(O)CCCC3=NC(C)=C2C(=O)Nc2ccccc2C)cc1OC (centres unmarked)	2.36%
COc1ccc(C(=O)CCC(=O)NC(Cc2ccccc2)c2ccccc2)cc1 (centres unmarked)	-8.86%
C=CCOc1cccc(CNc2ccc3[nH]c(O)nc3c2)c1	-4.12%
COc1ccccc1NC(=O)CC1Sc2ccccc2NC1=O (centres unmarked)	-3.93%
CCn1cc(C(C)NC(=O)c2ccc(COCC(F)(F)F)cc2)c(C)n1 (centres unmarked)	-6.67%
O=[N+]([O-])c1cc(CN2CCc3ccccc3C2)ccc1Cl	-3.71%
O=C1NN(c2ccc(Cl)c(Cl)c2)C(=O)/C1=C/c1ccco1	-1.5%
Cc1cccc2c1CC(C)(C)N/C2=C\C(N)=O	-5.1%
Nc1c(C(=O)NCc2ccco2)nnn1Cc1ccccc1	2.83%
OC(COc1ccc(Cl)cc1)CN1CCOCC1 (centres unmarked)	-1.76%
COc1ccc(-c2cc(C(=O)O)c3c(-c4ccccc4)[nH]nc3n2)c(OC)c1OC	-0.0401%
N#Cc1c(-c2ccc(Cl)cc2)cc(C2CC2)nc1N	-1.5%
Cc1ccc(-c2onc(C)c2C)cc1S(=O)(=O)NCCN1CCCCCC1	1.32%
COc1cccc(C2c3c(oc4ccccc4c3=O)C(=O)N2c2nncs2)c1 (centres unmarked)	2.1%
CC(C)N(Cc1nc(-c2ccccc2)no1)C(=O)C(C)(C)Oc1ccc(Cl)cc1	-4.31%
CN(C)c1ccc(/C=C2\SC(=O)N(Cc3ccccc3)C2=O)cc1	0.24%
Cc1cc([N+](=O)[O-])cc2c1N(C)C(=O)C2=O	-2.15%
O=[N+]([O-])c1c(N2CCOCC2)cc(Cl)c2nonc12	2.51%
O=C(NCCCN1CCOCC1)c1cc2c(=O)oc3ccccc3c2s1	0.813%
CCCCNC(=O)CN(c1ccc(Cl)c(Cl)c1)S(C)(=O)=O	0.764%
N#CC1=C(N)OC2=C(C(=O)CC(c3ccccc3)C2)C1c1ccc(Cl)c(Cl)c1 (centres unmarked)	16.8%
Cc1ccc(CN2C(=O)N/C(=C/c3c(F)cccc3Cl)C2=O)cc1	-8.29%
CSc1ccn(-c2nc(-c3ccccc3)sc2-c2ccccc2)c(=O)n1	1.33%

SMILES	% Inhibition @ 10 uM
Cc1cc(C(F)F)n2ncc(C(=O)NCc3ccc(Cl)cc3)c2n1	-0.67%
O=C(O)c1cnn2c1NC(c1ccccc1)CC2C(F)(F)F (centres unmarked)	3.32%
O=C(COc1ccc2ccccc2c1)Nc1cc(C(=O)O)cc(C(=O)O)c1	-0.968%
CCCOc1ccc(C2C(C#N)=C(N)Oc3c2oc(CO)cc3=O)cc1OC (centres unmarked)	-1.21%
COc1ccc(/C=C/C(O)=C(\C#N)c2nc3ccccc3[nH]2)cc1OC	0.0069%
CCCNC(=O)CSc1nc(-c2ccc(OC)c(OC)c2)cc(C(F)(F)F)n1	15.3%
Cc1ccc(C(=O)Nc2ccc(S(=O)(=O)N3CCCCCC3)cc2)cc1Br	-6.65%
COc1ccc(Br)cc1CN1CCN(C(=O)c2cccc(F)c2)CC1	-1.04%
Cc1ccsc1/C=c1\sc2nnc(-c3ccc(Cl)cc3)n2c1=O	-3.64%
COc1cccc(/C=C2\N=C(c3ccc(Cl)cc3Cl)OC2=O)c1	-4.84%
Cc1cccc2sc(NC(=O)c3ccccc3)nc12	2.07%
O=C1Oc2ccccc2C(=O)/C1=C(O)/C=C/c1ccccc1O	0.238%
CSc1ccc(CCNC(=O)c2ccc(CS(=O)Cc3ccccc3Cl)o2)cc1 (centres unmarked)	2.57%
O=C(CSc1nc2cccnc2[nH]1)NCc1ccccc1Cl	-3.53%
O=C(CCCCCN1C(=O)c2ccccc2C1=O)NCCc1nc2ccccc2[nH]1	-7.46%
N#CC1=C(N)Oc2[nH]nc(-c3ccc4c(c3)OCO4)c2C1c1cccs1 (centres unmarked)	-2.88%
O=C(NCCN1CCOCC1)C(=O)NCc1ccco1	3.72%
CCOC(=O)N1CCN(S(=O)(=O)N2CCCC(C(=O)NCc3ccc(F)cc3Cl)C2)CC1 (centres unmarked)	2.05%
CC(NC(=O)/C=C/c1ccc2c(c1)OCO2)c1ccccc1 (centres unmarked)	4.1% and -0.569%
CS(=O)(=O)N1CCC(C(=O)NC2CCCCCCC2)CC1	-6.88%
Cc1ccc(Nc2nc(N)nc(-c3cc(Cl)ccc3O)n2)cc1	0.583%
CCc1ccc(CNC(=O)C2CCN(C3=NS(=O)(=O)C(c4ccc(C)c(C)c4)=C3C)CC2)cc1	-0.12%
N#C/C(=C(/O)c1ccc(F)cc1)c1nc2ccccc2s1	5.94%
COc1ccc(OC)c(N2C(=O)CC(N3CCN(c4ccccc4)CC3)C2=O)c1 (centres unmarked)	-1.17%
COc1cccc(S(=O)(=O)N2CCN(C(c3ccccc3)c3ccccc3)CC2)c1	-2.21%
